From PMC7819943, “Rice protein-binding microarrays: a tool to detect cis-acting elements near promoter regions in rice” come the findings set out here.

The other results are listed elsewhere or left out.

In the test the target is T1, OsWOX13 (Oryza sativa, UniProt Q5QMM3 1-267).
T1 sequence: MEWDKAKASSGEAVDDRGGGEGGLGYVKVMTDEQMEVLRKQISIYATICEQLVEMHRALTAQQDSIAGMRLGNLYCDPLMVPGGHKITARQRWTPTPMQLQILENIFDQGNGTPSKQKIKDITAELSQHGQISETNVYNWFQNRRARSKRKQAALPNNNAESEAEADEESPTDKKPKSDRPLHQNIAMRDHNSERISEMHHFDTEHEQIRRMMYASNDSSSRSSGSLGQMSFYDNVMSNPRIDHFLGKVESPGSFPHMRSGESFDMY
Nature of the test: protein-binding microarray (RPBM); PBS, 2% BSA, 51.3 ng/ul salmon testes DNA, 50 uM zinc acetate, 200 nM TF, 25 C, 1 h; high values mean tight binding. Conditions: protein: recombinant; tags: N-terminal polyhistidine and DsRed monomer fusion (pET32a); label: CyDye5-dUTP incorporated in the synthesized complementary strand; 3' TTTTT single-stranded linker to array surface; dsDNA, one strand shown. The method in brief: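 For the binding signal, per-feature fluorescence intensity was read in arbitrary units on an Axon 4000B scanner. Before scanning, a 2% BSA-blocked custom Agilent array made double-stranded with Cy5-dUTP was washed after 1 h at 25 °C with 200 nM protein and 50 µM zinc acetate. The proteins were Ni–NTA-purified transcription factors with N-terminal polyhistidine and DsRed fusions, expressed in E. coli BL21-CodonPlus.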
As for “GATGGTGAGGTGATTTGCAACTTGCAAGATTGTTGCCCTTCGGAGTCACCTAGTGCAG”, the binding signal is 3460 fluorescence intensity (a.u.).
As for “ATCAAATTATCACCTTAATCTCATCATCAATTCTGTCGTACGGAGTCACCTAGTGCAG”, the figure is 18300 fluorescence intensity (a.u.); as for “CAGGTTAATTTATGCAATTAACCGTGCTATCACGAACCACCGGAGTCACCTAGTGCAG”, 36000 fluorescence intensity (a.u.).
In the case of “TTAATTAATCACGTGTTAATAAATAACTCTGTTTTACATGCGGAGTCACCTAGTGCAG”, the binding signal was 16500 fluorescence intensity (a.u.).
As for “AGAATTAATCTCGCACACTAATTATAGGTCCAGCTAAGTTCGGAGTCACCTAGTGCAG”, the binding signal is 13500 fluorescence intensity (a.u.).
As to “TTCATCAATCCAATTGCAAGAATTGAATTCAATTTGGTGTCGGAGTCACCTAGTGCAG”, the binding signal was 7130 fluorescence intensity (a.u.).
Turning to “GTAAACTGCATATTAACGCCTGAATTCATTGGTAGTGCCACGGAGTCACCTAGTGCAG”, the binding signal was 12500 fluorescence intensity (a.u.).
As to “CCACTGCATTAATTGTGTTTTCCTTTGCAAACAAATCAATCGGAGTCACCTAGTGCAG”, the binding signal was 6490 fluorescence intensity (a.u.).
For the sequence “TTATTAATTATCATATTAGTAGTAGTAGTAGTAGCTAGGCCGGAGTCACCTAGTGCAG”, the binding signal was 34100 fluorescence intensity (a.u.).
As for “CATAATAATTATATAGTCCGTCTTAGCATAAGCCACGGGGCGGAGTCACCTAGTGCAG”, the figure is 22200 fluorescence intensity (a.u.); as for “TATATATATATATATATATGTGTGTGTGTGTGTGTATGGTCGGAGTCACCTAGTGCAG”, 5650 fluorescence intensity (a.u.).
As for “AAATATATAGATTGGATACGATACATGATAAGTGATGGCACGGAGTCACCTAGTGCAG”, the binding signal is 22300 fluorescence intensity (a.u.).
As for “AATGATTAGAGATTAATCACTAATCAAGATAATTAATCAGCGGAGTCACCTAGTGCAG”, the figure is 49500 fluorescence intensity (a.u.); as for “CACCCATGACTGTCTTTCTTCAATTGAAATGAATTATTGTCGGAGTCACCTAGTGCAG”, 5390 fluorescence intensity (a.u.); as for “ACGTTTAACTTTCTTGTAATTTGCTATTTAAGGTTAAGCTCGGAGTCACCTAGTGCAG”, 6740 fluorescence intensity (a.u.).
In the case of “CAGATGATTGTAGATGATCAAAGCTTTAATATGCATCTTGCGGAGTCACCTAGTGCAG”, the binding signal is 40900 fluorescence intensity (a.u.).
As for “TACACAGATTGCGTGTAAATTGCGAGACGAATCTTTTAAGCGGAGTCACCTAGTGCAG”, the binding signal was 17100 fluorescence intensity (a.u.).
On to “TATTATGTGATTAATTGTATGCATCGTTGGAGTTTCAACTCGGAGTCACCTAGTGCAG”, for which the binding signal was 16900 fluorescence intensity (a.u.).
As to “ACTTATCACTCTAATCACTCATTGCATACACGGTTAATTACGGAGTCACCTAGTGCAG”, the binding signal is 8280 fluorescence intensity (a.u.).
“TTTTGATGAAATAAACTATGAAAATCCTGTGAAATTCATGCGGAGTCACCTAGTGCAG”: the binding signal is 7340 fluorescence intensity (a.u.).
For “CTAAACTATTGAAATAAGTGTAATTTGACTTCTCCAATGGCGGAGTCACCTAGTGCAG”, the binding signal was 7150 fluorescence intensity (a.u.).
Then “CTTGATGTGATATTGCTGCCTTCCAAATGGGACTTGGATCCGGAGTCACCTAGTGCAG”, with 10100 fluorescence intensity (a.u.).
Turning to “ACCTCTTCCATTTCCATCTTTCTGTTTCTGATTCATTAAACGGAGTCACCTAGTGCAG”, the binding signal was 4930 fluorescence intensity (a.u.).
Take “GCTTAATTAGCCCAATAATAGTAAATAAATTAAAACTCGACGGAGTCACCTAGTGCAG”: the binding signal was 33400 fluorescence intensity (a.u.).
In the case of “GCCCGACGGTGACTGGACTCACTTAGCGGTGACTGGTTCGCGGAGTCACCTAGTGCAG”, the binding signal is 3610 fluorescence intensity (a.u.).
In the case of “GGGATTGCGAGATTGGGAGCGACTTCCGCGCCCGCATATACGGAGTCACCTAGTGCAG”, the binding signal is 5600 fluorescence intensity (a.u.).
In the case of “ATAAAATTTCAAATCAACCTGATTTGTTTGAATTAATACACGGAGTCACCTAGTGCAG”, the binding signal was 28800 fluorescence intensity (a.u.).
As for “GTGGTGATTTCATCAATTTTAAGATACGCCGGCTCGGTTTCGGAGTCACCTAGTGCAG”, the binding signal was 15400 fluorescence intensity (a.u.).
As for “CTCGCTAATTAGATGGATAAACTTCGTTTATCGCGTCCCACGGAGTCACCTAGTGCAG”, the figure is 42400 fluorescence intensity (a.u.); as for “CTGATTATCTGAATATCTGGATCCCCGTCACTCACATGCACGGAGTCACCTAGTGCAG”, 16100 fluorescence intensity (a.u.); as for “GATGGTGTAATGACTGATGTGATCCTTTTGTCCTTGTCCACGGAGTCACCTAGTGCAG”, 4430 fluorescence intensity (a.u.).
Then “ATTTGACAAGACTCCAATTAAATTTTATATGCGGGTATTACGGAGTCACCTAGTGCAG”, with 13900 fluorescence intensity (a.u.).
As for “TGTCTACTAGGTGTCATTGTCAATCTGTCATTGCACAACTCGGAGTCACCTAGTGCAG”, the figure is 3400 fluorescence intensity (a.u.); as for “TAGAAATAATTAGGATGATATAACTTATCGATAGAAGAGACGGAGTCACCTAGTGCAG”, 8980 fluorescence intensity (a.u.).
With “GGCGTTAATCACGTGATGGGCATGGATAGTGATTTAGATTCGGAGTCACCTAGTGCAG”, the binding signal was 13900 fluorescence intensity (a.u.).
Consider “AACCTTCTCGAACTTAATTTAATTGATGGGGCCTTTGAATCGGAGTCACCTAGTGCAG”, for which the binding signal was 11000 fluorescence intensity (a.u.).
Turning to “ATCTTATTTTAGATTGCTGCATTTTAATACGGACGAAGTACGGAGTCACCTAGTGCAG”, the binding signal is 9140 fluorescence intensity (a.u.).
For “TTGTTAATTATGAGTTCATATCTCGCAATTTCAAGCAAATCGGAGTCACCTAGTGCAG”, the binding signal was 14200 fluorescence intensity (a.u.).
In the case of “CCTAATGATAATTAAGAGGAGTGATGATGGGCATGCCATTCGGAGTCACCTAGTGCAG”, the binding signal is 27000 fluorescence intensity (a.u.).
On to “TATGCAGAATTAATTTATTTAATCACCTCTATTGACTTGACGGAGTCACCTAGTGCAG”, for which the binding signal is 10700 fluorescence intensity (a.u.).
For the sequence “TGCTTGACTGTGAGTACTGTTTGGGAGGGAGAGTGGTAAACGGAGTCACCTAGTGCAG”, the binding signal is 6190 fluorescence intensity (a.u.).
As for “GTACTTATATATATATAGATAGATTGAAATAGAACTAAACCGGAGTCACCTAGTGCAG”, the figure is 7280 fluorescence intensity (a.u.).
